# Laboratory results published in PMC4336329 (PLoS ONE, 2015).
# Among all 310,000 compounds or so, about 2,200 (0.71%) showed an effect of 50% or more. Effects have a minus sign here. This is one part of the list.
# Molecular target: human ether-à-go-go-related gene (hERG) potassium channel (human, UniProt Q12809)
# Test: primary screen, population patch clamp on CHO cells stably expressing hERG
# human ether-à-go-go-related gene (hERG) potassium channel, sequence (Q12809 whole entry, looked up): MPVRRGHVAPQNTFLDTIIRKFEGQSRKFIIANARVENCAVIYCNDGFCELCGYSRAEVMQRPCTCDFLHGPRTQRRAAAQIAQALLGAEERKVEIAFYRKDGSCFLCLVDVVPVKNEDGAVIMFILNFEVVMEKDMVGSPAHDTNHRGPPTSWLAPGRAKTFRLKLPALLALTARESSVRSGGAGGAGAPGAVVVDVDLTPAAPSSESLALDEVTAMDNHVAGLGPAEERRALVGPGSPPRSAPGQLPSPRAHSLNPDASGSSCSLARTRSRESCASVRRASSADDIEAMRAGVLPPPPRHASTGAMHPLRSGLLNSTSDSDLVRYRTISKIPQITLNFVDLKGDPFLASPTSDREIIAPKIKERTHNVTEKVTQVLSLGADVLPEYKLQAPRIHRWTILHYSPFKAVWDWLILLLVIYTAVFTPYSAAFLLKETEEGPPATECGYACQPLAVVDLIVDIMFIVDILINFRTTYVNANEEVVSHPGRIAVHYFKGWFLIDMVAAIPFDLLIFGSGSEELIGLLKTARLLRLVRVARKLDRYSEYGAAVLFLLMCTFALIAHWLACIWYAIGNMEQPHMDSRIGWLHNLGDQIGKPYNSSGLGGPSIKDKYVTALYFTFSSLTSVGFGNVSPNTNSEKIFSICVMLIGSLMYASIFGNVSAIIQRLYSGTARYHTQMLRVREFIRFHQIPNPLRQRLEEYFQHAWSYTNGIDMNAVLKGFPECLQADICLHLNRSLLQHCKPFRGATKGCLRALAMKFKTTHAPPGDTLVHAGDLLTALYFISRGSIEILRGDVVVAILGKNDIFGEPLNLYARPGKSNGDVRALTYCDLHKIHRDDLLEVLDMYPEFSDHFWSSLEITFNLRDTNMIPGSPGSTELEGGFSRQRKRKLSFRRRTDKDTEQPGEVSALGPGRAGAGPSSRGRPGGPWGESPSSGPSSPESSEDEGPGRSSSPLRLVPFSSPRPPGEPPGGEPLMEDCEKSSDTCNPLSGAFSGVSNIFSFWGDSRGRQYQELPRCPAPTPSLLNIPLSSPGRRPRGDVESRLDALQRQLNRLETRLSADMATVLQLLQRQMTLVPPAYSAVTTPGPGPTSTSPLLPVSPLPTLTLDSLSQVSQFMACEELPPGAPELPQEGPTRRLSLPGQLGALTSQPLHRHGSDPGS
row,Compound,"hERG current change (%, negative = inhibition) at 1uM [%]"
1,CC12CCC(=O)N1C(C(=O)N1CCN(c3cccc(Cl)c3)CC1)CS2 (stereo not shown),-1.7
2,CSc1ncc(CN2CCCC(C(=O)c3ccccc3SC)C2)cn1 (stereo not shown),-12.6
3,O=C(COC(=O)c1cccnc1Nc1ccccc1F)NCc1ccc2c(c1)OCO2,2.23
4,COCO/C=C(\NC(C)=O)c1ccccc1,12
5,Cc1cc(C)nc(SCc2cc(=O)c(OC(=O)c3ccco3)co2)n1,11.7
6,Cc1ccc(NC(=S)NCC2CCN(C(C)c3ccccc3)C2)cc1 (stereo not shown),1.58
7,O=C(N/N=C/c1c(F)cccc1Cl)c1ccc(Cn2cc(Br)cn2)o1,4.3
8,Cc1c(C)c2ccc(O)c(CN3CCCC3)c2oc1=O,17.8
9,O=S(=O)(Nc1ccc(Cl)c(Cl)c1)N1CCOCC1,7.48
10,CCOC(=O)C(C(=O)OCC)c1c([N+](=O)[O-])c(=O)n2c3c(cccc13)CCC2,12.9
11,O=C(NC1CCN(C(=O)c2ccccc2Br)CC1)c1ccccc1,17
12,N#CCc1ccc(NC(=O)CSc2nnc(C3CC3)n2C2CC2)cc1,23
13,O=C(NC(=S)Nc1ccc2oc(=O)ccc2c1)c1cccc(F)c1,17.5
14,Cc1ccc(Oc2ccc(N)cc2)cc1.Cl,7.92
15,CC(c1nc2ccccc2c(=O)[nH]1)N1CCN(C)CC1 (stereo not shown),0.394
16,COC(=O)COc1ccc(S(=O)(=O)N2CCCCC2)cc1[N+](=O)[O-],14.6
17,O=C(CSc1nnc2ccccn12)NNC(=O)c1ccc(Br)cc1,16.9
18,CCn1c(SCC(=O)Nc2ccc(S(=O)(=O)Nc3onc(C)c3C)cc2)nnc1-c1ccccc1,-8.31
19,Cc1ccc(-n2cccn2)c(CN2CCCC(C(=O)c3sccc3C)C2)c1 (stereo not shown),-82.8
20,CC(CN1CCCCC1)NC(=O)c1cccs1 (stereo not shown),9.63
21,CCN(CC)CCNC(=O)c1ccc(NC(=O)c2ccc(S(=O)(=O)N3CCCCCC3)cc2)cc1,13.3
22,O=C(N/N=C(\Cc1ncc[nH]1)c1ccccc1)c1ccncc1,6.55

row,Compound,"hERG current change (%, negative = inhibition) at 1uM [%]"
1,CSc1ccc(/C=N/NC(=O)c2cccc(Cl)c2)cc1,0.0835
2,COc1ccc(C)cc1NC(=O)CCCN1C(=O)NC(C)(C)C1=O,5.46
3,O=C1CC(NS(=O)(=O)c2ccccc2)CN1c1ccc2c(c1)OCCO2 (stereo not shown),5.04
4,COc1ccc(C)cc1N(CC(=O)Nc1cccnc1)S(=O)(=O)c1ccc(C)cc1,10.3
5,CCCCCCCC(=O)OCC(O)CO (stereo not shown),9.65
6,CCN(CC)C(=S)SCC(=O)c1c(C)[nH]c2ccccc12,2.79
7,Cl.O=C(c1ccc(Cl)c(S(=O)(=O)N2CCCC2)c1)N1CCN(c2ccc(F)cc2)CC1,-4.95
8,CSc1ccccc1C(=O)NCc1ccc(C)cc1,9.27
9,COc1cc(OC)c(C(=O)OCN2C(=O)c3ccccc3C2=O)cc1OC,-10.6
10,CC(=O)Nc1ccc(S(=O)(=O)NCC(=O)OCc2ccccc2)cc1,15.4
11,Cn1c(NCCO)nc2c1c(=O)n(Cc1ccc(F)cc1)c(=O)n2C,9
12,CC(C)CCNC(=O)C(=O)Nc1ccc2c(c1)N(S(=O)(=O)c1cccs1)CCC2,17.1
13,CCc1c(C(=O)O)[nH]c2ccc(Br)cc12,5.08
14,c1ccc(COc2ccc(CNn3cnnc3)cc2)cc1,15.3
15,O=C1c2cccc3cccc(c23)C(=O)N1CCCc1n[nH]c(=S)n1-c1ccccc1,16.2
16,COc1ccc(NCN2C(=O)C3C4C=CC(C4)C3C2=O)cc1 (stereo not shown),13.6
17,O=c1ccc(/C=C/c2ccccc2)nn1Cc1ccccc1Cl,5.58
18,COc1cccc(Nc2ncccc2C(=O)O)c1,10.8
19,COc1cc(OC)c(/C=N/n2c(C3CCCCC3)n[nH]c2=S)c(OC)c1,6.28
20,CC(NC(=O)CCC(=O)c1ccc(F)cc1)C1CC2CCC1C2 (stereo not shown),5.64
21,O=C(COc1ccc2c(c1)CCC2)N1CCc2ccccc21,8.08
22,CNc1c(C(=O)O)ccc2c1C(=O)c1ccccc1C2=O,4.93

row,Compound,"hERG current change (%, negative = inhibition) at 1uM [%]"
1,CCOc1ccc(S(=O)(=O)Nc2cc(C)ccn2)c2ccccc12,7.64
2,CC(NC(=O)CNC(=O)Cc1cccc2ccccc12)c1ccc(S(N)(=O)=O)cc1 (stereo not shown),8.87
3,COc1ccc(/C(O)=C2/C(=O)C(=O)N(CCN(C)C)C2c2ccccc2)cc1Cl (stereo not shown),9.27
4,N#Cc1ccccc1NC(=O)C(=O)NCCCN1CCCC1=O,2.74
5,Cn1ncc(C#N)c1/N=C/N(Cc1ccccc1)Cc1ccccc1,-4.89
6,CCCc1cc(=O)[nH]c(SCCCCN2C(=O)c3ccccc3C2=O)n1,7.6
7,COc1ccc(NC(=O)CN(C)C(=O)c2c(C)nn(-c3ccccc3)c2Cl)cc1,16.4
8,Cc1cccc(Oc2ncnc3oc(-c4ccccc4)cc23)c1C,3.29
9,Cc1coc2cc3oc(=O)c(CCC(=O)N4CCC(C(=O)O)(c5ccccc5)CC4)c(C)c3cc12,1.45
10,O=C(Cn1cc(C(F)(F)F)cc(Cl)c1=O)Nc1cc(S(=O)(=O)N2CCOCC2)ccc1Cl,12
11,CC[C@@H]1CN(C)[C@H]2Cc3c([nH]c4ccccc34)C(=O)C[C@@H]1[C@@H]2C(=O)OC,11.8
12,COC(=O)[C@]1(Cc2ccccc2)N[C@H](c2ccc(-c3ccccc3)cc2)[C@@H]2C(=O)N(C)C(=O)[C@@H]21.O=C(O)C(F)(F)F,11.1
13,Cc1cccc(N=c2oc3cc(O)ccc3cc2C(N)=O)c1,4.26
14,O=C(NCc1ccccc1F)C1CCCN1S(=O)(=O)c1ccc(Cl)cc1 (stereo not shown),7.77
15,COc1ccc(C)cc1S(=O)(=O)N(C)CC(=O)NC1CC1,12.8
16,Nc1c(-c2ccc(Cl)cc2)cnc2c(-c3ccc(F)cc3)cnn12,16.8
17,Cc1ccccc1OCCCCCn1ccnc1,2.95
18,O=C1CCC(=O)N1c1nc2n(n1)C(c1ccccc1)C=C(c1ccc(Br)cc1)N2 (stereo not shown),-0.468
19,CCN(CC)c1nc2c(C)cccn2c(=O)c1C=C1C(=O)NC(=O)NC1=O,14.5
20,CC(C)(C)n1nc2c(c1NC(=O)c1cccc(C(F)(F)F)c1)CS(=O)C2 (stereo not shown),1.06
21,COc1ccc(C(=O)Nc2ccc3cn[nH]c3c2)c(OC)c1,16.6
22,Oc1[nH]c2ccccc2c1N=Nc1nncc2ccccc12,14.2

row,Compound,"hERG current change (%, negative = inhibition) at 1uM [%]"
1,COC(=O)NNC(=O)c1ccc(Cl)cc1Cl,14.6
2,Cc1nc(C)n(CCNC(=O)c2ccco2)n1,22.3
3,O=P(Nc1cccnc1)(Oc1ccccc1)Oc1ccccc1,9.77
4,CCN(CC)S(=O)(=O)c1ccc(C)c(NC(=S)Nc2cccc(S(=O)(=O)N3CCCCCC3)c2)c1,4.26
5,CC(=C/c1ccccc1)/C=N/NC(=O)CSc1nc(C)cc(C)n1,7.47
6,O=C(Nc1ccc(NC(=O)C2CC2)cn1)c1ccccc1,15.2
7,CC[C@@H](C)[C@H](CN[C@H](CNC)C(C)C)NC[C@@H](C)c1ccc(CC(C)C)cc1,2.83
8,N=c1c(C(=O)NC2CCCCC2)cc2c(=O)n3ccccc3nc2n1Cc1ccco1,-59.1
9,COc1ccc(/C=C2\CCCC3C2=NN(C(=O)c2ccco2)C3c2ccc(OC)c(OC)c2)cc1OC (stereo not shown),-3.14
10,COc1cc2c(cc1OC)-c1cc(NC3CC3)nc(=O)n1CC2,-1.53
11,CCC1(C)OC(=O)N(CCCn2ccnc2C)C1(C)O (stereo not shown),-13.9
12,Cc1cccc(N2CCN(Cc3cn(C)nc3-c3ccccc3F)CC2)n1,-7.34
13,CC(=O)NCCC(=O)Nc1cc(S(=O)(=O)N2CCOCC2)ccc1N1CCOCC1,15.2
14,N/C(=N\OC(=O)c1ccc(Cl)cc1Cl)c1ccccc1,-0.32
15,c1ccc(-c2ccnc3nc(N4CCN(c5ccccc5)CC4)nn23)cc1,3.29
16,CC1CN(C(=O)CCC(=O)NCCCc2ccccc2)c2ccccc2O1 (stereo not shown),-15.5
17,Nc1nccc(/C=C/c2c(Cl)cccc2Cl)n1,10.7
18,Cc1c(N2C(=O)/C(=C3/C(=O)N(C)c4ccccc43)SC2=S)c(=O)n(-c2ccccc2)n1C,10.3
19,CCOC(=O)c1nccnc1C(=O)Nc1cccc(C(F)(F)F)c1,4.52
20,Cc1cc(C)c2nc(N3CCCC(C(=O)NCCCN4CCOCC4)C3)sc2c1 (stereo not shown),3.78
21,CCN(C(=O)COC(=O)c1cc([N+](=O)[O-])ccc1N1CCOCC1)C1CCS(=O)(=O)C1 (stereo not shown),6.81
22,NC(=S)N/N=C/c1cn(-c2ccccc2)nc1-c1cccnc1,15.1
